According to the antibiotic and cytotoxicity screens of Wong et al. (2023):
Some of the results follow.

How the values were obtained:
HSkMC = human skeletal muscle cells; test: cytotoxicity call (relative viability < 0.9); conditions: 10 µM
HepG2 = test: cytotoxicity call (relative viability < 0.9); conditions: 10 µM
S. aureus RN4220 = test: growth inhibition call (relative growth <= 0.2); conditions: 50 µM

Compound | cytotoxicity call (HSkMC) | cytotoxicity call (HepG2) | growth inhibition call (S. aureus RN4220)
O=C(C[C@@H]1CC[C@@H]2[C@H](COC[C@H](O)CN2S(=O)(=O)c2ccccc2)O1)N1CCOCC1 | inactive | inactive | inactive
CCS(=O)(=O)CCn1c([N+](=O)[O-])cnc1C | inactive | active | inactive
C[C@@H]1CN([C@H](C)CO)C(=O)c2cc(NC(=O)Nc3cccc4ccccc34)ccc2O[C@@H](C)CCCCO[C@@H]1CN(C)C(=O)C1CCCCC1 | inactive | inactive | inactive
CC(C)NC(=O)Nc1ccc2c(c1)C(=O)N([C@@H](C)CO)C[C@@H](C)[C@H](CN(C)S(=O)(=O)c1cn(C)cn1)O2 | inactive | inactive | inactive
Cc1ccc(S(=O)(=O)N(C)C[C@@H]2OCCCC[C@H](C)Oc3ccc(NC(=O)Nc4ccc(F)cc4)cc3C(=O)N([C@@H](C)CO)C[C@H]2C)cc1 | inactive | inactive | inactive
C[C@H](CO)N1C[C@H](C)[C@@H](CN(C)C(=O)Nc2ccc3c(c2)OCO3)Oc2ccc(NC(=O)C3CC3)cc2C1=O | inactive | inactive | inactive
C[C@@H]1CCCCO[C@H](CN(C)CC2CCCCC2)[C@@H](C)CN([C@H](C)CO)C(=O)c2cc(NC(=O)Nc3ccccc3)ccc2O1 | inactive | inactive | inactive
C[C@H](CO)N1C[C@H](C)[C@H](CN(C)C(=O)C2CCOCC2)Oc2cc(-c3ccc(F)cc3)ccc2S1(=O)=O | inactive | inactive | inactive
COc1ccc(NC(=O)Nc2ccc3c(c2)C(=O)N([C@H](C)CO)C[C@H](C)[C@H](CN(C)C(=O)Nc2ccccc2)OCCCC[C@H](C)O3)cc1 | inactive | inactive | inactive
Cn1cnc(S(=O)(=O)N[C@@H]2CC[C@@H](CC(=O)N3CCN(c4ccccc4)CC3)O[C@@H]2CO)c1 | inactive | inactive | inactive
C[C@@H]1CN([C@@H](C)CO)C(=O)c2cc(NS(=O)(=O)c3ccc(F)cc3)ccc2O[C@@H]1CN(C)S(=O)(=O)c1ccc(F)cc1 | inactive | inactive | inactive
CS(=O)(=O)N[C@H]1CCN(c2ccccn2)C1 | inactive | inactive | inactive
Cc1noc(C)c1S(=O)(=O)Nc1ccc2c(c1)CC(=O)N([C@H](C)CO)C[C@H](C)[C@H](CN(C)C(=O)NC(C)C)O2 | inactive | inactive | inactive
Cc1cc(NS(=O)(=O)c2ccc(N)cc2)nc(C)n1 | inactive | inactive | inactive
Cc1ccc(S(=O)(=O)N(C)C[C@@H]2Oc3ccc(NC(=O)Nc4cccc5ccccc45)cc3C(=O)N([C@H](C)CO)C[C@H]2C)cc1 | inactive | inactive | inactive
NCCc1nc(-c2ccccc2)cs1 | inactive | inactive | inactive
C[C@@H]1CN([C@H](C)CO)C(=O)c2cc(NS(=O)(=O)c3ccccc3)ccc2O[C@H]1CN(C)S(C)(=O)=O | inactive | active | inactive
COc1cccc(C(=O)Nc2ccc3c(c2)C(=O)N(C)[C@H]2CC[C@H](CC(=O)NCC(F)(F)F)O[C@H]2CO3)c1 | inactive | inactive | inactive
OCc1cccc(CO)n1 | inactive | inactive | inactive

Compound | cytotoxicity call (HSkMC) | cytotoxicity call (HepG2) | growth inhibition call (S. aureus RN4220)
O=S1(=O)[C@@H]2C[C@H]3C=C[C@]2(CN1C1CC1)O3 | inactive | inactive | inactive
C[C@@H](O)c1cccc(C(F)(F)F)c1 | inactive | inactive | inactive
CC(CN1CC(=O)NC(=O)C1)N1CC(=O)NC(=O)C1 (stereo not drawn) | inactive | inactive | inactive
C[C@@H]1CN([C@@H](C)CO)C(=O)Cc2cc(NC(=O)Nc3cccc4ccccc34)ccc2O[C@@H]1CN(C)CC1CCCCC1 | inactive | active | inactive
COc1ccc(NC(=O)Nc2ccc3c(c2)C(=O)N([C@@H](C)CO)C[C@H](C)[C@H](CN(C)C(=O)Cc2ccccc2)OCCCC[C@@H](C)O3)cc1 | inactive | inactive | inactive
C[C@H](CO)N1C[C@H](C)[C@H](CN(C)Cc2ccc(-c3ccccc3)cc2)Oc2c(NC(=O)NC3CCCCC3)cccc2C1=O | inactive | inactive | inactive
COCCNc1cc(NC(=O)N2CCCc3cc(CN4CCN(C)CC4=O)c(C=O)nc32)ncc1C#N | inactive | inactive | inactive
COc1ccc(NC(=O)N(C)C[C@@H]2Oc3ccc(NC(=O)Nc4cccc5ccccc45)cc3CC(=O)N([C@@H](C)CO)C[C@H]2C)cc1 | inactive | inactive | inactive
COc1ccc(CN(C)C[C@H]2Oc3ccc(NS(=O)(=O)c4cn(C)cn4)cc3CC(=O)N([C@@H](C)CO)C[C@@H]2C)cc1 | inactive | inactive | inactive
CCCCCCc1nc(-c2ccc(-c3ccc(Cl)c(Cl)c3)o2)cc2c1[Si](C(C)C)(C(C)C)OC2 | active | inactive | inactive
CCS(=O)(=O)N1CC[C@]2(CC1)CN(Cc1ccc3c(c1)OCO3)[C@H](CO)c1[nH]c3cc(ccc3c12)OC | inactive | inactive | inactive
O=C1NCCN2CCN(C(=O)Cn3cccc3)C[C@@H]12 | inactive | inactive | inactive
C[C@@H]1CN([C@@H](C)CO)S(=O)(=O)c2ccc(C#C[C@@H](C)O)cc2O[C@@H]1CN(C)C | inactive | inactive | inactive
C[C@@H]1CCCCO[C@@H](CN(C)C(=O)Nc2ccc(C(F)(F)F)cc2)[C@H](C)CN([C@@H](C)CO)C(=O)c2cc(NS(=O)(=O)c3ccc(F)cc3)ccc2O1 | inactive | active | inactive
COc1ccc(NC(=O)N(C)C[C@@H]2OCCCC[C@@H](C)Oc3ccc(NC(=O)NC4CCCCC4)cc3C(=O)N([C@@H](C)CO)C[C@@H]2C)cc1 | inactive | inactive | inactive
C[C@@H]1CN([C@@H](C)CO)C(=O)CCCn2nncc2CO[C@H]1CN(C)S(=O)(=O)c1cccc(C#N)c1 | inactive | inactive | inactive
CCC(=O)N[C@@H]1CC[C@H](CC(=O)OC)O[C@H]1CO | inactive | inactive | inactive
COc1ccc(CN(C)C[C@H]2OCCCC[C@@H](C)Oc3ccc(NC(=O)Nc4cccc5ccccc45)cc3C(=O)N([C@@H](C)CO)C[C@H]2C)cc1 | active | active | inactive
C[C@@H]1CN([C@@H](C)CO)C(=O)c2cc(NS(=O)(=O)c3ccc(F)cc3)ccc2O[C@@H]1CN(C)CC1CC1 | inactive | inactive | inactive

Compound | cytotoxicity call (HSkMC) | cytotoxicity call (HepG2) | growth inhibition call (S. aureus RN4220)
C[C@@H]1CN([C@@H](C)CO)S(=O)(=O)c2ccc(-c3ccc(C(=O)N(C)C)cc3)cc2O[C@H]1CN(C)C(=O)C1CCC1 | inactive | inactive | inactive
c1ccc(/N=C2\S/C(=N\C3CCCCC3)C3=C2CCCC3)cc1 | inactive | inactive | inactive
Cc1noc(C)c1NC(=O)Nc1ccc2c(c1)CC(=O)N([C@@H](C)CO)C[C@H](C)[C@H](CN(C)S(C)(=O)=O)O2 | inactive | inactive | inactive
C[C@@H]1CN([C@H](C)CO)C(=O)c2cc(NC(=O)c3ccncc3)ccc2O[C@@H](C)CCCCO[C@H]1CN(C)C(=O)Nc1ccc(F)cc1 | inactive | inactive | inactive
C[C@H]1O[C@@H](OC[C@H]2O[C@@H](Oc3c(-c4ccc(O)c(O)c4)oc4cc(O)cc(O)c4c3=O)[C@@H](O)[C@@H](O)[C@@H]2O)[C@@H](O)[C@@H](O)[C@@H]1O | inactive | inactive | inactive
O=C(C[C@@H]1C=C[C@@H](NC(=O)Cc2ccccn2)[C@H](CO)O1)NCCc1ccncc1 | inactive | inactive | inactive
COc1cccc(S(=O)(=O)N[C@H]2CC[C@H](CC(=O)NC3CCC3)O[C@@H]2CO)c1 | inactive | inactive | inactive
CNC[C@@H]1Oc2ccc(NC(=O)Cn3cnnn3)cc2CC(=O)N([C@@H](C)CO)C[C@H]1C | inactive | active | inactive
Cc1noc(C)c1S(=O)(=O)Nc1ccc2c(c1)C(=O)N([C@@H](C)CO)C[C@H](C)[C@@H](CN(C)Cc1ccc(C(F)(F)F)cc1)OCCCC[C@@H](C)O2 | inactive | inactive | inactive
CCOC(=O)C1CCN(C(=O)CNC(=O)Cc2n[nH]c(=O)c3ccccc23)CC1 | inactive | inactive | inactive
COc1ccc(NC(=O)Nc2ccc3c(c2)C(=O)N([C@@H](C)CO)C[C@H](C)[C@H](CN(C)C(=O)Nc2cccc4ccccc24)O3)cc1 | inactive | active | inactive
CN1CCN(C(=O)C[C@@H]2CC[C@@H]3[C@H](COC[C@@H](O)CN3CC3CCCC3)O2)CC1 | inactive | inactive | inactive
C[C@H]1CN([C@@H](C)CO)C(=O)Cc2cc(NC(=O)Nc3ccc(F)cc3)ccc2O[C@H]1CN(C)C(=O)Nc1cccc2ccccc12 | inactive | inactive | inactive
COc1ccc(NC(=O)Nc2ccc3c(c2)C(=O)N([C@@H](C)CO)C[C@@H](C)[C@@H](CN(C)S(=O)(=O)c2ccc(OC)cc2)OCCCC[C@@H](C)O3)cc1 | inactive | inactive | inactive
O=C1O[C@@H](c2ccccc2)[C@@H](c2ccccc2)N2[C@@H](c3ccccc3OCCO)[C@]3(C(=O)Nc4ccc(C#CC5(O)CCCCCC5)cc43)[C@@H](C(=O)O)[C@H]12 | inactive | inactive | inactive
CC1(C)S[C@@H]2[C@H](NC(=O)[C@H](N)c3ccccc3)C(=O)N2[C@H]1C(=O)OCOC(=O)[C@@H]1N2C(=O)C[C@H]2S(=O)(=O)C1(C)C | inactive | inactive | active
CCCC(=O)Nc1ccc2c(c1)C(=O)N(C)C[C@H](OC)[C@H](C)CN(Cc1ccc(-c3ccccn3)cc1)[C@@H](C)CO2 | inactive | inactive | inactive
CCC(=O)O[C@@H](OP(=O)(CCCCc1ccccc1)CC(=O)N1C[C@H](C2CCCCC2)C[C@H]1C(=O)O)C(C)C (stereo partly drawn) | inactive | inactive | inactive
